Out of some 350,000 compounds screened, about 260 (0.074%) were called active. Inconclusive means that the source gave no clear call. Such entries were picked first, then a sample of the others. The call rests on the fitted dose curve; in most records, active means well fitted inhibition curve with a large enough effect; inconclusive means small, poorly fitted or top-dose-only effect; inactive means no such curve, though single readings can be large or run the other way. Potencies beside an inconclusive call are fits to weak or partial responses and may not hold up.
biological target: Ferritin light chain (Equus caballus) (UniProt P02791); assay: qHTS Assay for Identification of Novel General Anesthetics; settings: apoferritin/1-aminoanthracene competitive binding, fluorescence; series mostly up to 77.5 µM; further: nearly all actives have a fitted effect of over 20% in size
Chain of UniProt P02791 (P02791 whole entry, looked up): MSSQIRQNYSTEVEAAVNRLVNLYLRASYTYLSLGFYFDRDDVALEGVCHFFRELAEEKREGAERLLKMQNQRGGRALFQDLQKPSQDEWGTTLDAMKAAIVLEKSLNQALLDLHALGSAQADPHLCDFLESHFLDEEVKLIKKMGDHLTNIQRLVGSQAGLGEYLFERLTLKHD
How it was run: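 Horse-spleen apoferritin (10 uM) in 50% saturated 1-aminoanthracene in PBS was incubated 10 min at room temperature with compound. Fluorescence (ex 380, em 535 nm) was normalized to free and bound 1-AMA, with concentration-response fitted by a four-parameter Hill equation.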
Potency means the concentration at half of the fitted maximal effect; tags describe the fitted curve by direction and shape.

SMILES	Potency
C[C@](N)(Cc1ccc(O)cc1)C(=O)O	inactive
COc1ccc2c(c1)O[C@@H](c1cccc(C(F)(F)F)c1)[C@H](OC(=O)NCCc1ccc(OC)c(OC)c1)C2=O	inconclusive: 50.1 µM [inhibitor, single point]
CC(C)(Cc1ccccc1)NC(=O)C(=O)c1cn(CC(=O)N2CCOCC2)c2ccccc12	inconclusive: 39.8 µM [inhibitor, partial curve]
CC1CCCC(NC(=O)CCS(=O)(=O)c2ccc3c(c2)NC(=O)CS3)C1C (stereo unspecified)	inconclusive: 22.4 µM [inhibitor, partial curve]
Cc1cc(C)cc(NS(=O)(=O)c2ccc3[nH]cc(C(=O)NCCc4ccccc4)c(=O)c3c2)c1	inconclusive: 39.8 µM [inhibitor, partial curve]
O=C(Cc1cccs1)Nc1nc(-c2ccccc2)cs1	inactive
CC(C)(C)NC(=O)NC(=O)COC(=O)Cc1c(F)cccc1Cl	inconclusive: 39.8 µM [inhibitor, partial curve]
O=C(CCC1COc2ccccc2O1)NC1CCCCC1 (stereo unspecified)	inconclusive: 31.6 µM [inhibitor, partial curve]
CCSc1nc2ccc(N3C(=O)C4C5C=CC(C5)C4C3=O)cc2s1 (stereo unspecified)	inconclusive: 50.1 µM [inhibitor, single point]
O=C(OCc1nc2ccccc2s1)c1ccco1	inconclusive: 22.4 µM [inhibitor, partial curve]
CCCCOc1ccc(C2C(C(=O)Nc3ccccc3OC)=C(C)Nc3nnnn32)cc1OC (stereo unspecified)	inconclusive: 3.98 µM [inhibitor, full curve, poor fit]
O=C(COc1ccc(Cl)cc1)Nc1nnc(S(=O)(=O)N2CCCCCC2)s1	inconclusive: 6.31 µM [inhibitor, full curve]
Cc1cc(=O)[nH]c(SCC(=O)C23CC4CC(CC(C4)C2)C3)c1C#N	inconclusive: 12.6 µM [inhibitor, partial curve]
O=S(=O)(c1ccccc1)c1nc(NCc2ccccc2)sc1Cl	inconclusive: 50.1 µM [inhibitor, single point]
O=C(O)COc1ccccc1/C=N/NC(=O)CSc1nc2ccccc2s1	inconclusive: 35.5 µM [inhibitor, single point]
COc1ccc(-c2csc(NC(=O)c3cccc(S(=O)(=O)N4CCN(C)CC4)c3)n2)cc1	inconclusive: 3.55 µM [inhibitor, full curve, poor fit]
CCOC(=O)C1=C(O)C(=O)NC(c2ccccc2)=C(OC2CCCCC2)C1	inactive
Cc1nc([N+](=O)[O-])cn1Cc1cccc2ccccc12	inconclusive: 50.1 µM [inhibitor, single point]
Brc1ccccc1-n1nnc(-c2nccs2)n1	inconclusive: 35.5 µM [inhibitor, partial curve]
Cc1cccc(-c2nnc(N)s2)c1	inconclusive: 39.8 µM [inhibitor, single point]
Cc1cc(C)n2c(SCc3ccccc3Cl)nnc2n1	inconclusive: 31.6 µM [inhibitor, partial curve]

SMILES	Potency
CCCC/C=C/[C@H](c1ccccc1)[C@H](CO)Cc1cccnc1	inconclusive: 35.5 µM [inhibitor, single point]
CSc1sc(C)cc1C1C(C#N)=C(N)N(c2cccnc2)C2=C1C(=O)CCC2 (stereo unspecified)	inconclusive: 39.8 µM [inhibitor, single point]
COCc1nnc(NC(=O)c2ccc(OC)cc2OC)s1	inactive
CN(CCc1ccccc1)c1ccc([N+](=O)[O-])cn1	inconclusive: 25.1 µM [inhibitor, partial curve]
CCCN1C(=O)C(O)(CC(=O)c2ccc(C(C)C)cc2)c2ccccc21 (stereo unspecified)	inconclusive: 12.6 µM [inhibitor, partial curve]
Cc1cc(C)n2ncc(C(=O)NCc3ccc(Cl)cc3)c2n1	inconclusive: 31.6 µM [inhibitor, partial curve]
CCOc1ccc(C(=S)NC2CCCCC2)cc1	inactive
CC(C)C[C@H](NC(=O)CN(C)C(=O)[C@H](Cc1ccccc1)NC(=O)[C@H](Cc1ccccc1)NC(=O)[C@H](CCC(N)=O)NC(=O)[C@H](CCC(N)=O)NC(=O)[C@@H]1CCCN1C(=O)[C@H](CCCCN)NC(=O)[C@@H]1CCCN1C(=O)[C@@H](N)CCCN=C(N)N)C(=O)N[C@@H](CCS(C)(=O)=O)C(N)=O	inactive
O=C(Nc1ccc(-c2cnco2)cc1)c1ccccc1	inactive
O=C(NC(=S)N(Cc1ccccc1)Cc1ccccc1)c1ccccc1F	inconclusive: 14.1 µM [inhibitor, partial curve]
CCOC(=O)CC(NC(=O)c1cc2c(=O)n3cccc(C)c3nc2s1)c1ccc(OCC)c(OC)c1 (stereo unspecified)	inconclusive: 6.31 µM [inhibitor, single point]
Cc1cc(NC(C)c2ccccc2)n2ncc(-c3ccccc3)c2n1 (stereo unspecified)	inactive
O=C(CCCN1C(=O)/C(=C/c2ccccc2)SC1=S)Nc1ccccc1O	inconclusive: 31.6 µM [inhibitor, partial curve]
CCCCc1ccc(-c2nc(NC(=O)C3C4CCC(O4)C3C(=O)O)sc2C)cc1 (stereo unspecified)	inconclusive: 20 µM [inhibitor, partial curve]
O=C(c1cc2nc(-c3cccs3)cc(C(F)(F)F)n2n1)N1CCCc2ccccc21	inconclusive: 3.16 µM [inhibitor, partial curve]
CN1C(=O)/C(=C/c2ccccc2OCc2cccc(F)c2)N(C)C1=S	inconclusive: 15.8 µM [inhibitor, partial curve]
O=C1CC(c2ccccc2)Oc2ccccc21 (stereo unspecified)	inconclusive: 25.1 µM [inhibitor, partial curve]
Cc1ccc(NC2CCCN(C(=O)c3cnsn3)C2)cc1C (stereo unspecified)	inconclusive: 10 µM [inhibitor, partial curve]
Cc1ccc(NC(=O)c2ccn(C)n2)c(Br)c1	inactive
COc1ccc(C)cc1NC(=O)C(NCC(O)c1ccccc1)c1ccccc1 (stereo unspecified)	inconclusive: 39.8 µM [inhibitor, single point]

Reference: PubChem BioAssay AID485281 (National Center for Advancing Translational Sciences (NCATS), 2010)
